According to PubChem BioAssay AID1508624 (National Center for Advancing Translational Sciences (NCATS), 2021):
Hit rate of the full screen: of about 48,000 compounds, about 120 (0.25%) were called active. Another 4% or so got no clear call; they are omitted. Calls come from the whole dose curve; as a rule, active = well fitted activation curve with a large enough effect; inconclusive = small, poorly fitted or top-dose-only effect, or another doubt; inactive = no such curve, though single readings can be large or run the other way. Some of the results follow.

assay: Primary qHTS for Identification of Small Molecule Activators of Huntingtin-Antisense Promoter Activity; settings: HEK293 HTT-AS promoter firefly luciferase reporter, 24 h; series mostly up to 57.5 µM; activity change, positive = activation: at the top concentration; note: nearly all actives have a fitted effect of over 55% in size
Procedure, shortened: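 Quantitative HTS used concentration series of up to 57.5 uM final on HEK293 luciferase reporter cells, 24 h at 37 degrees C. Readout was Dual-Glo firefly luminescence.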

Activity change, positive = activation, inactive:
Cc1ccccc1CNC(=O)Cn1ccc2cc(S(=O)(=O)N3CCCCC3)ccc21 -41.5%, CC(C)=CCCC(C)=CCCC(C)=CCSc1ccccc1C(=O)O -29.6%, Cc1cccc(C(=O)Nc2ccc(C(=O)OCc3cc(=O)n4c5c(sc4n3)CCCC5)cc2)c1 -36.9%, CC(=O)c1ccc(NC(=O)c2ccc3c(c2)nnn3C2CCCC2)cc1 3.88%, CCOc1ccc(C(=O)CSc2nc3cc(C(=O)NC4CCCC4)ccc3c(=O)n2CC2CCCO2)cc1 (configuration not stated) 1.39%, Cc1ccc(C)c(NC(=O)c2nc(S(C)(=O)=O)ncc2N(Cc2ccc(C(C)(C)C)cc2)Cc2ccco2)c1 -17.5%, CN1C(=O)Cc2cc(S(=O)(=O)N3CCN(c4cccc(C(F)(F)F)c4)CC3)ccc21 -18.4%, CCOc1cc(NC(C)=O)ccc1C(=O)OC -6.35%, O=c1[nH]cc(F)c(=O)[nH]1, Cc1ccc(C)c(CN2C(=O)c3ccccc3S(=O)c3ccc(C(=O)N(C)Cc4ccccc4)cc32)c1 (configuration not stated) -36.3%, Cc1ccc(-n2ncc(C(=O)N3CCC(c4ccccc4)C3)c2C2CCN(C(=O)OC(C)(C)C)CC2)cc1 (configuration not stated) -11.4%, CCCCOc1ccc(CNC(=O)c2ccc(NC(=O)N3CCSc4ncccc43)cc2)cc1 -25.8%, O=C(Nc1nc(-c2ccc(Br)cc2)ns1)c1ccccc1F -7.38%, COC(=O)CCN(C(=O)c1c(C)oc2ncnc(N3CCOCC3)c12)c1ccccc1 -3.25%, Cc1cccc(N2CCN(C(=O)C3CCN(S(=O)(=O)c4ccc5c(c4)oc(=O)n5C)CC3)CC2)c1C -42.6%, Cc1cc(C)c2oc(C(=O)Nc3ccc(S(=O)(=O)N(C)c4ccccc4)cc3)cc(=O)c2c1 7.43%, O=c1c2c3c(sc2n(Cc2cc(=O)n4ccccc4n2)c(=O)n1-c1ccc(Cl)cc1)CCC3 0.459%, O=c1ncn2nc(Sc3ccc(F)cc3F)ccc2c1-c1c(Cl)cccc1Cl -14.2%, Cc1coc2cc3oc(=O)c(CC(=O)NCc4ccccc4)c(C)c3cc12 -16.8%, CC(C)(C)c1ccc(S(=O)(=O)Nc2ccc(O)c(Sc3nc4ccccc4s3)c2)cc1 -36.3%, CC(=O)N1CCCc2cc(S(=O)(=O)N3CCCC(C(=O)Nc4ccc(C)c(C)c4)C3)ccc21 (configuration not stated) -19.4%, COc1cccc(-c2cnc(NCc3ccccc3Cl)n2C)c1 2.42%, C[C@]12C=CC(=O)C=C1CC[C@@H]1[C@@H]2[C@@H](O)C[C@@]2(C)[C@H]1CC[C@]2(O)C(=O)CO -9.99%, Cc1ccc(C(=O)Nc2ccc3oc(-c4cccnc4)nc3c2)c(Cl)c1 1.98% [at 11.5 µM, percent change from vehicle, -100% = no light], CCOc1ccccc1NC(=O)c1cc(S(=O)(=O)NC2CCCC2)ccc1F -32.2%, CCOc1ccc2nc(N3CCC(C(=O)Nc4c(C)cccc4C)CC3)sc2c1 19.9%, Cc1ccc(C)c(N2CCN(C(=O)c3cc4c(=O)n(Cc5cccs5)ccc4nc3C)CC2)c1 -30.6%, Cc1ccc(S(=O)(=O)Nc2cc3c(cc2Cl)n(C)c(=O)c(=O)n3C)cc1 -12.8%, COc1cc(NC(=O)N2CCN(c3cc(-c4noc(C)n4)ccc3C)CC2)cc(OC)c1OC -25.4%, Cc1ccc(NC(=O)/C(C#N)=C\c2ccc(Cl)cc2Cl)cc1C 0.908%, COc1ccc2c(c1)c1c(c(=O)n(CCc3ccccc3)c(=O)n1Cc1ccc(Cl)cc1)n2C -10.7%, CCOc1ccccc1NC(=O)N1CCN(S(=O)(=O)c2ccc3c(ccn3C)c2)CC1 -22.4%, CCN(c1ccc(C)cc1)S(=O)(=O)c1nnc(NC(=O)c2cccs2)s1 -33.7%, Cc1ccc(-c2ccc(CCC(=O)O)n2-c2ccc(C(C)C)cc2)cc1 -0.93%, Nc1c(-c2nc(-c3ccccc3)no2)nnn1CC(=O)Nc1ccccc1 4.15%, COc1ccccc1CNC(=O)Cn1ncc2c(C)n(Cc3ccccc3Cl)c(C)c2c1=O -12.7%, CCN(CC)CCNC(=O)c1cc2c(=O)[nH]c3ccc(C)cc3c2s1 -11.5%, COC(=O)CSc1nnc2n(-c3ccccc3)c(=O)c3c4c(sc3n12)COC(C(C)C)C4 (configuration not stated) -11%, CCC(=O)N1CCc2cc(S(=O)(=O)N(C)c3cccc(C)c3)ccc21 -17%, CS(=O)(=O)c1ccc([C@@H](O)[C@@H](CO)NC(=O)C(Cl)Cl)cc1, CCN(c1cc(C)cc(C)c1)S(=O)(=O)c1nnc(NC(=O)c2cccc(F)c2)s1 -51.5%, CCOc1ccccc1N1CC(c2nc3ccccc3n2CCOc2ccc(C(C)(C)C)cc2)CC1=O (configuration not stated) -15.9%, COc1c(C)c2c(c(O)c1CC=C(C)CCC(=O)O)C(=O)OC2 -29.1%, CCOc1ccccc1N(C)C(=O)Cn1nc(Cc2cccnc2)c2ccccc2c1=O -15.9%, CCOC(=O)N1CCC(NC(=O)c2cnn(-c3ccc(C)cc3C)c2C2CCN(C(=O)OC(C)(C)C)CC2)CC1 0%, CC(=O)Nc1cccc(Nc2nc3ccccc3n3c(C)nnc23)c1 26.2%, O=C(CN1CCCN(Cc2ccc(F)cc2)S1(=O)=O)Nc1ccc2c(c1)OCCO2 -4.3%, CCc1nn(CCCC(=O)NCc2ccc(C)cc2)c(=O)c2cc3occc3n12 -16.3%, CCOc1ccccc1N(C)C(=O)Cn1nc(Cc2ccncc2)c2ccccc2c1=O -20.7%, CCc1ccc(NC(=O)CC2C(=O)N(c3ccc(C)cc3)C(=O)N2C2CCCC2)cc1 (configuration not stated) -2.77%, CC(C)(C)c1ccc(Oc2nc3ccccn3c(=O)c2/C=C(\C#N)c2nc3ccccc3s2)cc1 2.09% [at 11.5 µM, percent change from vehicle, -100% = no light], C[C@@H](c1ncncc1F)[C@](O)(Cn1cncn1)c1ccc(F)cc1F -12.7%, COc1ccc2c(c1)CCc1sc(NC(=O)c3ccc(Br)cc3)nc1-2 -36.2%, CN(C)c1oc(-c2ccc(COc3ccccc3)o2)nc1C#N -24.2%, COc1ccc(N2CCN(S(=O)(=O)CCNC(=O)c3cc(=O)c4ccccc4o3)CC2)cc1 -2.34%, CC(C)CN(CCNC(=O)c1cn(C)c2ccc(S(=O)(=O)N3CCCCCC3)cc2c1=O)CC(C)C -5.12%, COc1cc(NC(=O)Cn2ccn(-c3cc(C)cc(C)c3)c(=O)c2=O)cc(OC)c1 -13.3%
